Measurements as given in PubChem BioAssay AID686978 (National Center for Advancing Translational Sciences (NCATS), 2013).
In all, about 420,000 compounds went through this assay and about 64,000 (15%) were called active. Inconclusive means that the source gave no clear call. Such entries were picked first, then a sample of the others. Calls come from the whole dose curve; as a rule, active = well fitted inhibition curve with a large enough effect; inconclusive = small, poorly fitted or top-dose-only effect; inactive = flat fitted curve, though single readings scatter. Potencies of inconclusive entries are left out as doubtful fits.

Test: qHTS for Inhibitors of human tyrosyl-DNA phosphodiesterase 1 (TDP1): qHTS in cells in absence of CPT; note: nearly all actives have a fitted effect of over 55% in size
Settings: DT40 Tdp1-/- hTDP1 cells, no CPT, ATP luminescence, 48 h; activity change, negative = growth inhibition: at 46.2 µM (top of the series) unless noted
How it was run: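 Cells were dispensed at 400 per well, compounds added by pin tool, plates incubated ≥48 hr at 37 °C, then CellTiter-Glo added for 30 min at room temperature before luminescence reading. Line: DT40 Tdp1-/- complemented with hTDP1; camptothecin omitted.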
% is set by controls: 0 for no effect and ±100 for the full control effect; potency is the fitted concentration of half-maximal effect; tags give direction and shape of the fitted curve.

| Compound | Potency | activity change, negative = growth inhibition |
| --- | --- | --- |
| CCOC(=O)C1(CCCc2ccccc2)CCN(C2CCN(C(C)=O)CC2)CC1 | inconclusive [inhibitor, single point] | – |
| O=c1oc2ccccc2c(NCCc2ccccc2)c1[N+](=O)[O-] | inconclusive [inhibitor, single point] | – |
| CCCCCC(=O)Nc1ccccc1N1CCN(c2ccccc2)CC1 | inconclusive [inhibitor, partial curve] | – |
| CCOc1ccc(NC(=O)c2c(Nc3ccccc3C)sc(C(=O)c3ccccc3)c2N)cc1 | active: 11.6 µM | – |
| O=C(CN1C(=O)C2(SCC(=O)N2c2cccc(Cl)c2)c2ccccc21)NCCc1ccccc1 (stereo not drawn) | inconclusive [inhibitor, single point] | – |
| CC1=[N+](CC(=O)c2ccccc2)CCn2cccc21 | inconclusive [inhibitor, single point] | – |
| C=CCn1c(SCC(=O)N(C)C)nc2sc3c(c2c1=O)CCC3 | inconclusive [inhibitor, single point] | – |
| COc1cccc(CNn2cn[nH]c2=S)c1OCc1ccccc1 | inactive | – |
| CCOC(=O)c1c(C2COc3ccccc3O2)csc1NC(=O)c1ccccc1 (stereo not drawn) | inactive | – |
| CCS(=O)(=O)c1ncc(N(Cc2ccccc2)Cc2ccco2)c(C(=O)Nc2cccc(Cl)c2C)n1 | inconclusive [inhibitor, single point] | – |
| COc1ccccc1N(CC(=O)N1CCN(c2ccccc2)CC1)S(=O)(=O)c1ccc(C)cc1 | inconclusive [inhibitor, single point] | – |
| Cc1c(Cl)cccc1-c1ccc(CNCCSc2nnnn2-c2ccccc2)o1 | inactive | – |
| O=C(CN1C(=O)NC2(CCCC2)C1=O)OCc1cccc(Br)c1 | inconclusive [inhibitor, single point] | – |
| CCCCn1cnc2c(SCc3ccccc3Cl)nc(N)nc21 | inconclusive [inhibitor, single point] | – |
| CCc1ccc(C(O)c2ncc(-c3cccc(C)c3)[nH]2)cc1 (stereo not drawn) | inconclusive [inhibitor, single point] | – |
| CCCCCCC(=O)N=Nc1c(O)[nH]c2ccc([N+](=O)[O-])cc12 | inconclusive [inhibitor, single point] | – |
| O=C(NCc1cccc(F)c1F)C1CCC(=O)N(C2CCCCCC2)C1 (stereo not drawn) | inactive | – |
| COc1ccc(-c2nnc(SC(C)C(=O)Nc3c(C)n(C)n(-c4ccccc4)c3=O)o2)cc1 (stereo not drawn) | inactive | – |
| Oc1ccc(O)c(Cc2nc3ccccc3[nH]2)c1 | active: 8.2 µM | – |
| COc1cccc2cc(/C(C)=N/NC(=O)c3ccco3)oc12 | inconclusive [inhibitor, single point] | – |
| C=Cc1cccc(NC(=O)c2ccc(NC(=O)c3ccco3)cc2)c1 | active: 6.51 µM | – |
| Cc1cc(C)c(C(=O)Cn2nc(C(=O)O)c3ccccc3c2=O)cc1C | inactive | – |
| CC(=O)Nc1ccc(S(=O)(=O)NNC(=O)CCc2ccccc2)cc1 | inactive | – |
| O=C(NCc1ccco1)C1CCN(c2ccc(S(=O)(=O)N3CCOCC3)cc2[N+](=O)[O-])CC1 | active: 23.1 µM | – |
| COc1cc(N)c(Cl)cc1C(=O)OCC(=O)NC1CCCC1 | inactive | – |

| Compound | Potency | activity change, negative = growth inhibition |
| --- | --- | --- |
| CCOC(=O)c1c(NC(=O)C(C)Sc2cccc[n+]2[O-])sc2c1CCN(Cc1ccccc1)C2 (stereo not drawn) | active: 16.4 µM | – |
| CCOC(=O)c1csc(-c2csc(CCNC(=O)c3ccccc3)n2)n1 | inconclusive [inhibitor, single point] | – |
| Cc1ccc(C)c(Cn2c3ccccc3c3cnn(CC(=O)NC(C)CCc4ccccc4)c(=O)c32)c1 (stereo not drawn) | active: 3.26 µM | – |
| CCOc1ccc2[nH]c(=O)c(CN(Cc3ccco3)C(=O)c3ccc(Br)cc3)cc2c1 | active: 3.26 µM | – |
| CC[C@]12c3[nH]c4ccc(OC)cc4c3CCN1C(=O)C(CC(=O)NCc1ccco1)C[C@@H]2C(=O)N1CCN(C(=O)c2ccco2)CC1 (stereo partly drawn) | inactive | – |
| COC(=O)c1ccc(Cl)cc1NC(=O)Nc1nnc(N2CCCC2)s1 | inactive | – |
| COc1ccc(CCNC(=O)c2ccc3c(c2)N(Cc2ccccc2)C(=O)c2ccccc2S3=O)cc1OC (stereo not drawn) | active: 11.6 µM | – |
| Cc1c(Cl)ccc2sc(N3CCN(C(=O)C4=COCCO4)CC3)nc12 | inconclusive [inhibitor, single point] | – |
| Cc1ccn2cc(C34CC5CC(CC(C5)C3)C4)nc2c1 | inconclusive [inhibitor, single point] | – |
| c1coc(CNc2nc3ccccc3n2CCN2CCOCC2)c1 | inactive | – |
| O=C(c1ccc(Cl)cc1)C1CCCN(C(=O)c2csnn2)C1 (stereo not drawn) | inconclusive [inhibitor, single point] | – |
| COc1cccc(NC(=O)c2c([N+](=O)[O-])cnn2C)c1 | inactive | – |
| COCOc1cccc(CN2CCC(C)(Oc3ccc(SC)cc3)C2)c1 (stereo not drawn) | active: 10.3 µM | – |
| O=c1[nH]nc(SCCS(=O)(=O)c2ccc(F)cc2)n1-c1ccccc1C(F)(F)F | inconclusive [inhibitor, single point] | – |
| CC1NC(=S)N(C2CCCCC2)C1=O (stereo not drawn) | inactive | – |
| COc1ccc(CCNc2ncnc3c2nnn3Cc2ccccc2)cc1 | inconclusive [inhibitor, partial curve] | – |
| Cc1ccc(-n2ncc(C(=O)N3CCN(c4cc(Cl)ccc4C)CC3)c2C2CCN(C(=O)OC(C)(C)C)CC2)cc1 | inactive | – |
| O=C(N/N=C/c1cccc(Cl)c1)c1c(O)c2c([nH]c1=O)CCCC2 | inconclusive [inhibitor, single point] | – |
| Cn1ncc2c(N)nc(NCCO)nc21 | inactive | – |
| Cc1ccc(C(=O)NCC(=O)Nc2ccc(C)c(S(=O)(=O)Nc3ccc(Cl)cc3)c2)s1 | – | inconclusive: -32.2% [inhibitor] |
| COc1cccc(C(=O)NCCCNc2nc3cc(C)cc(C)c3cc2C#N)c1 | active: 25.9 µM | – |
| CS(=O)(=O)Nc1ccc(C2=NN(C(=O)c3ccco3)C(c3ccc(F)cc3)C2)cc1 (stereo not drawn) | active: 16.4 µM | – |
| COC(=O)[C@H](NC(=O)c1cc(-c2ccccc2)sc1N)C(C)C | inconclusive [inhibitor, single point] | – |
| O=C(CSc1nc(-c2ccccc2)nn1C(=O)c1ccccc1)Nc1cccc([N+](=O)[O-])c1 | inconclusive [inhibitor, partial curve] | – |
| O=C(O)COCC(=O)N1CCN(C2c3ccccc3-c3ccccc32)CC1 | inactive | – |

| Compound | Potency | activity change, negative = growth inhibition |
| --- | --- | --- |
| CCOc1ccccc1NC(=O)C(OC(=O)c1cnc(C)cn1)c1ccccc1 (stereo not drawn) | inconclusive [inhibitor, single point] | – |
| COc1cccc(C2=CC(c3cc(OC)ccc3OC)n3nnnc3N2)c1 (stereo not drawn) | active: 6.51 µM | – |
| COC(=O)c1ccccc1NC(=O)CN(c1ccc(C)cc1)S(C)(=O)=O | inactive | – |
| COc1ccccc1N1CCN(C(=O)C(=O)c2cccc([N+](=O)[O-])c2)CC1 | inconclusive [inhibitor, single point] | – |
| COc1ccc(CNc2ncnc3c2nc2n3CCCC2)cc1 | inactive | – |
| COCCn1c(C)cc(C(=O)COC(=O)c2ccccc2Br)c1C | inconclusive [inhibitor, single point] | – |
| COC(=O)CSc1ncc2c(n1)-c1ccccc1N(Cc1ccc(Cl)cc1)S2(=O)=O | inactive | – |
| COc1ccccc1C(=O)NC(C)c1ccccc1 (stereo not drawn) | inconclusive [inhibitor, partial curve, poor fit] | – |
| Cc1ccc2oc(-c3cccc(N)c3)nc2c1 | – | inconclusive: -32.6% [inhibitor] |
| O=c1c2ccccc2c(C=Nc2ccc(S(=O)(=O)N3CCCCC3)cc2)c(O)n1-c1ccc(Cl)cn1 | inactive | – |
| Cn1ncc2c(Nc3cc(C(F)(F)F)ccc3Cl)ncnc21 | inconclusive [inhibitor, single point] | – |
| O=C(NC(=S)Nc1ccc2nc[nH]c2c1)c1ccccc1 | inactive | – |
| Cc1ccccc1CN1CCN(Cc2ccccc2C(F)(F)F)CC1 | inconclusive [inhibitor, single point] | – |
| CN(C)CCCN(C(=O)COc1ccc(Cl)cc1)c1nc2cc3c(cc2s1)OCCO3 | inconclusive [inhibitor, partial curve] | – |
| CCOC(=O)CCCCC(=O)c1[nH]c(=O)[nH]c1CSc1nnc2c3ccccc3n(C(C)C)c2n1 | inconclusive [inhibitor, partial curve, poor fit] | – |
| O=C(Nc1nonc1-c1ccc(Cl)cc1)c1ccccc1 | – | inconclusive: -32.4% [inhibitor] |
| O=C(COC(=O)/C=C/c1ccc(Br)o1)NCCCN1CCCC1=O | inactive | – |
| Cc1cc(-c2n[nH]c(=S)n2/N=C/c2c[nH]c3ccccc23)n[nH]1 | inconclusive [inhibitor, single point] | – |
| CCOc1ccc(/C=C2\CCC(C3CCCC3)C2=O)cc1OC (stereo not drawn) | inconclusive [inhibitor, single point] | – |
| COc1ccc(NC(=O)c2c(C)oc3ccc(O)c(CN4CCC(C)CC4)c23)cc1Cl | inconclusive [inhibitor, single point] | – |
| O=C(Nc1ccc(Cc2ccncc2)cc1)c1ccc([N+](=O)[O-])o1 | inconclusive [inhibitor, single point] | – |
| O=C(COC(=O)C1CCCO1)Nc1nc(-c2ccc(F)cc2)cs1 (stereo not drawn) | inconclusive [inhibitor, partial curve] | – |
| Cc1ccc(C)c(NC(=S)NNC(=O)c2csc3c2CCC(C)C3)c1 (stereo not drawn) | inconclusive [inhibitor, single point] | – |
